# Measurements taken from PubChem BioAssay AID485281 (National Center for Advancing Translational Sciences (NCATS), 2010).
# Screen size: about 350,000 compounds; about 260 (0.074%) were called active. This list was built around the results that the source calls inconclusive (neither active nor inactive); the mix of calls is not that of the screen. Calls come from the whole dose curve; as a rule, active = well fitted inhibition curve with a large enough effect; inconclusive = small, poorly fitted or top-dose-only effect; inactive = no such curve, though single readings can be large or run the other way. Potencies of inconclusive entries are doubtful fits and often do not repeat.
# Target: Ferritin light chain (Equus caballus) (UniProt P02791)
# Chain of UniProt P02791 (P02791 whole entry, looked up): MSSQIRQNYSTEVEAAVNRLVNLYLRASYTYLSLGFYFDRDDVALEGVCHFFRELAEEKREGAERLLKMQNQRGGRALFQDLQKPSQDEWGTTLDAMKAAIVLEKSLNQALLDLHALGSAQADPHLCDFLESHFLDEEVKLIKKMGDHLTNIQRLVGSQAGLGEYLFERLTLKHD
# Experiment: qHTS Assay for Identification of Novel General Anesthetics; note: nearly all actives have a fitted effect of over 20% in size
# Details: apoferritin/1-aminoanthracene competitive binding, fluorescence; activity change, negative = displacement: at 77.5 µM (top of the series)
# In short: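 Apoferritin-based anesthetic binding model; compound displacement of fluorescent 1-AMA measured as endpoint fluorescence after 10 minutes at room temperature, scaled to free-ligand and complex controls.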
# % is set by controls: 0 for no effect and ±100 for the full control effect; potency is the fitted concentration of half-maximal effect; tags give direction and shape of the fitted curve.
Structure (SMILES),Potency,"activity change, negative = displacement"
O=C(Cc1cccs1)N1CCC(c2nc3c(nnn3Cc3ccccc3)c(=O)[nH]2)CC1,"inconclusive: 17.8 µM [inhibitor, partial curve]",
COC(=O)COc1ccc(-c2ccc(F)cc2)cc1C=O,"inconclusive: 15.8 µM [inhibitor, partial curve]",
CCc1ccc2oc(C(=O)Nc3nc(-c4ccccc4)ns3)c(C)c2c1,,inactive: -5.18%
CCC12CC3CC(C1)CC(C(=O)NNC(N)=O)(C3)C2,"inconclusive: 35.5 µM [inhibitor, partial curve]",
COc1cc(C=O)c(Br)cc1OCc1ccc(C)cc1,"inconclusive: 28.2 µM [inhibitor, single point]",
CCc1ccc(NS(=O)(=O)c2cccc3nonc23)cc1,"inconclusive: 35.5 µM [inhibitor, partial curve]",
COc1ccc(N2C(=O)c3ccccc3NC2(C)C)cc1,,inactive: 2.39%
NC[C@H](O)c1ccc(O)c(O)c1,inactive,
COc1ccc(C2=Nc3cc(C)ccc3OC2)cc1,"inconclusive: 31.6 µM [inhibitor, partial curve]",
CCN1CCc2c(OCc3ccc(C)cc3)cccc2C1=O,"inconclusive: 22.4 µM [inhibitor, partial curve]",
Cc1ccc(CSCC(=O)N/N=C/c2ccc(OCC(=O)Nc3ccc(C)cc3)cc2)cc1,"inconclusive: 28.2 µM [inhibitor, partial curve, poor fit]",
COc1ccc(CNC(=O)[C@H](C)N2C(=O)N3CCc4c([nH]c5ccccc45)[C@@]3(C)C2=O)cc1OC,,inactive: 24.5%
COc1cc(C(=O)OC2CC3CCC2(C)C3(C)C)ccc1OC(C)=O (configuration not stated),"inconclusive: 11.2 µM [inhibitor, partial curve]",
COc1ccc(NC(=O)c2coc3ccccc23)cc1OC,,inactive: -20%
COc1ccc(O)c(C(=O)c2cnc3onc(C(C)C)c3c2)c1,"inconclusive: 28.2 µM [inhibitor, partial curve]",
O=C(NC1CCCc2ccccc21)c1ccc(S(=O)(=O)N2CCOCC2)cc1 (configuration not stated),"inconclusive: 31.6 µM [inhibitor, single point]",
COc1ccc(CNC(=O)/C=C/c2cc([N+](=O)[O-])ccc2OC(F)F)cc1OC,"inconclusive: 39.8 µM [inhibitor, single point]",
CC(C)c1cc(C(=O)Nc2cccc(Cl)c2)no1,"inconclusive: 31.6 µM [inhibitor, partial curve]",
CCc1ccc(Sc2cc(C(=O)NCCCN3CCCC(C)C3)c3ccccc3n2)cc1 (configuration not stated),"inconclusive: 50.1 µM [inhibitor, single point]",
Cc1cccc(-c2nc(-c3ccncc3)no2)c1,,inactive: -19.5%
Cc1cc2nc(C)n(CCCNC(=O)Nc3ccc(F)cc3)c2cc1C,"inconclusive: 20 µM [inhibitor, partial curve]",
COc1cc(C(=O)N2CCN(C(=O)c3ccccc3)CC2)cc(OC)c1OC,,inactive: -2.77%
COc1cc(C(=O)NC(=S)Nc2ccc(Cl)c(C(=O)O)c2)cc(OC)c1OC,,inactive: -10.5%
Cc1cccc(N2CCC(N3CCN(C4CCCCC4)C(CCO)C3)CC2)c1C (configuration not stated),"inconclusive: 22.4 µM [inhibitor, partial curve]",

Structure (SMILES),Potency,"activity change, negative = displacement"
CC1CCC2(CC1)NC(=O)N(Cc1nnc(-c3cccs3)o1)C2=O (configuration not stated),"inconclusive: 15.8 µM [inhibitor, partial curve]",
O=C(O)C1CC(=O)N(Cc2ccccc2)C1 (configuration not stated),,inactive: -7.46%
O=C(Nc1cccc(C(=O)N2CCN(c3ccc(F)cc3)CC2)c1)c1nsc2ccccc12,"inconclusive: 25.1 µM [inhibitor, partial curve]",
CC(=O)c1ccc(NC(=O)CCCC(=O)c2ccccc2)cc1,,inactive: 2.82%
CC(Cc1cccs1)NC(=S)Nc1ccccc1 (configuration not stated),,inactive: -16.2%
CC(=O)Nc1ccc(S(=O)(=O)Nc2nc3ccccc3nc2N2CCCCCC2)cc1,"inconclusive: 31.6 µM [inhibitor, single point]",
O=C(CCCN=C1NS(=O)(=O)c2ccccc21)OCC(=O)N1CCc2ccccc21,"inconclusive: 25.1 µM [inhibitor, partial curve]",
O=C(CCCN1C(=O)/C(=C\c2cccc(Br)c2)SC1=S)Nc1cccnc1,"inconclusive: 5.01 µM [inhibitor, single point]",
COc1cccc(CN2CCN(C(=S)NCc3ccc(Cl)cc3)CC2)c1,,inactive: 6.16%
CCc1nn(C(C)C(=O)Nc2cccc(C)c2C)c(=O)c2cc3occc3n12 (configuration not stated),"inconclusive: 28.2 µM [inhibitor, partial curve]",
NC(N)=N/N=C/c1ccc(OCc2ccccc2Cl)cc1,"inconclusive: 25.1 µM [inhibitor, partial curve]",
COc1cc(NC(=O)c2cc3ccccc3cc2OC)ccc1NC(=O)c1cccs1,,inactive: 309%
N#C/C(=C\c1ccc(OC(=O)c2ccc(Br)s2)cc1)c1nc2ccccc2[nH]1,,inactive: 1.91%
CCCC(=O)NC(c1ccc(N(C)C)cc1)c1c(O)ccc2ccccc12 (configuration not stated),,inactive: -16.6%
O=C(NC(Nc1nc2ccccc2s1)(C(F)(F)F)C(F)(F)F)c1ccccc1,"inconclusive: 28.2 µM [inhibitor, single point]",
O=c1nc2c(-c3ccccc3F)n[nH]n2c2ccccc12,,inactive: -6.09%
CCOC(=O)Cc1cnc(NC(=O)Cn2nnc(-c3ccc(OCC)cc3)n2)s1,"inconclusive: 35.5 µM [inhibitor, partial curve]",
CC(=O)Nc1ccc2nc(SCc3ccccc3)sc2c1,"inconclusive: 25.1 µM [inhibitor, partial curve]",
CCn1c(SCC(=O)Nc2cccc(Cl)c2)nnc1-c1nonc1NC(C)=O,"inconclusive: 31.6 µM [inhibitor, partial curve]",
O=C(NCC(=O)N1CCN(C(c2ccccc2)c2ccccc2)CC1)c1ccc(Br)o1,,inactive: -4.89%
CC1=Nc2ccccc2/C1=C\c1nc(-c2ccccc2)oc1O,"inconclusive: 35.5 µM [inhibitor, partial curve]",
CN(C)c1ccc(/C=C/C(=O)c2ccc(C(C)(C)C)cc2)cc1[N+](=O)[O-],"inconclusive: 8.91 µM [inhibitor, full curve]",
O=C(CSc1c2c(nc3cc(Cl)ccc13)CCCC2)N1CCN(c2ccccc2F)CC1,"inconclusive: 14.1 µM [inhibitor, partial curve]",
CC1CC(C)CN(C(=O)c2ccncc2)C1 (configuration not stated),,inactive: -22.7%

Structure (SMILES),Potency,"activity change, negative = displacement"
CCOC(=O)c1c(C)oc2c1c(CN1CCN(CCO)CC1)c(O)c1ccccc12,,inactive: -21.7%
O=C(Nc1ccccc1)C1C2/C=C\CCCCC21 (configuration not stated),"inconclusive: 15.8 µM [inhibitor, partial curve]",
CC(C)(C)c1cc(O)c(C(C)(C)C)cc1O,,inactive: -9.61%
CC(=O)C1=C(O)C(=O)N(c2nccs2)C1c1ccccc1 (configuration not stated),,inactive: -0.018%
O=C(Nc1cccc(-c2nc3cccnc3s2)c1)c1cccc(Br)c1,,inactive: -10.9%
Cc1ccc(S(=O)(=O)c2nc(-c3cccs3)oc2SC(C)C)cc1,,inactive: -4.48%
CCCCc1ccc(/C=C(\C#N)C(N)=S)s1,"inconclusive: 35.5 µM [inhibitor, partial curve]",
O=C(CCCN1C(=O)/C(=C/c2cccs2)SC1=S)Nc1ccc(O)c(C(=O)O)c1,"inconclusive: 28.2 µM [inhibitor, partial curve]",
CCOc1ccccc1NC(=O)CSc1ncc(S(=O)(=O)c2ccc(C)c(C)c2)c(N)n1,,inactive: 2.47%
O=C(c1cc(COc2c(F)cccc2F)on1)N1CCc2ccccc2C1,"inconclusive: 20 µM [inhibitor, partial curve]",
COc1ccc(CC(=O)N2CCN=C2SCc2cccc([N+](=O)[O-])c2)cc1,"inconclusive: 8.91 µM [inhibitor, partial curve]",
O=C(O)c1ccccc1SCc1nc2ccccn2c1Br,,inactive: 1.63%
COc1cc([N+](=O)[O-])ccc1NC(=O)c1cccc(NC(=O)C(C)C)c1,"inconclusive: 35.5 µM [inhibitor, partial curve]",
Cc1cccc(OCc2nnc(SCC(=O)c3cccs3)n2C)c1C,"inconclusive: 35.5 µM [inhibitor, partial curve]",
CCOC(=O)/C(=C/C=C1\Sc2cc(OCC)c(OCC)cc2N1CC)C(C)=O,,inactive: -6.49%
Cc1cc(C)cc(NC(=O)Cn2nnc(C(=O)NCc3cccs3)c2N)c1,"inconclusive: 3.55 µM [inhibitor, full curve]",
CC1Cc2ccccc2N1C(=O)CN1C(=O)COc2ccccc21 (configuration not stated),"inconclusive: 15.8 µM [inhibitor, partial curve]",
COc1ccc(-c2cc(OC(=O)c3cccc(Cl)c3)c3c(C)oc(C)c3c(=O)c2)cc1,"inconclusive: 31.6 µM [inhibitor, partial curve]",
CCOC(=O)C1=C(N)N(c2ccc(N3CCCCC3)cc2)C(=O)C1,"inconclusive: 39.8 µM [inhibitor, single point]",
Cc1ccc(NC(=O)CCc2ccc(C)o2)c(Br)c1,"inconclusive: 17.8 µM [inhibitor, partial curve]",
Cc1cccc(-c2nc(CN3CCCC(C(=O)NC4CCCCCC4)C3)c(C)o2)c1 (configuration not stated),"inconclusive: 31.6 µM [inhibitor, partial curve]",
CN(CC(=O)Nc1ccc(Cl)cc1)CC(=O)Nc1ccc(F)c(F)c1F,"inconclusive: 17.8 µM [inhibitor, partial curve]",
CCCC[C@]12Cc3cc(C#N)ccc3C(O1)c1c(cc(C)n(Cc3ccccc3)c1=O)O2,"inconclusive: 3.16 µM [inhibitor, partial curve]",
Nn1c(SCC(=O)Nc2ccc3c(c2)OCO3)nnc1C(F)(F)F,"inconclusive: 44.7 µM [inhibitor, single point]",
